Values joined by “and” are separate entries in the source; they are usually repeats but may differ in a detail not shown here. Identical values can stand only once. About 6,900 (2%) of roughly 340,000 compounds were called active. No stated cut-off is given here; in the data, active means inhibition above about 30%; inactive means below that, where a call was filed. Only a part is listed here, and it is no random draw. Entries without a call were filed so in the source.

One may read the inhibition as the relative decrease from the control value, in per cent.

Chain of UniProt P14416 (P14416 whole entry, looked up): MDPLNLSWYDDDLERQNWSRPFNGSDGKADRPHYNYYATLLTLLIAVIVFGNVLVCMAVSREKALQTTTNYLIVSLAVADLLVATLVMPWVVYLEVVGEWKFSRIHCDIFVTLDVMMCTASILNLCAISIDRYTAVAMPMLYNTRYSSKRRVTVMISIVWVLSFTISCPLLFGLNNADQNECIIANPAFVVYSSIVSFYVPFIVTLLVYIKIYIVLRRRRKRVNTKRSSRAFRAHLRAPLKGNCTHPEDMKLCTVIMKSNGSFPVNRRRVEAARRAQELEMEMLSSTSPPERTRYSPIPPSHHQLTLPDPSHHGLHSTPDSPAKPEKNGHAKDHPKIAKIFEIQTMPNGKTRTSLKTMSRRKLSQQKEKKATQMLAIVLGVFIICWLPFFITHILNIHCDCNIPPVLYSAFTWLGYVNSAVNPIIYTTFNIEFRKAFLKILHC

The assay addresses D(2) dopamine receptor (Homo sapiens) (UniProt P14416). The assay can be described thus: HTS Assay for Allosteric Antagonists of the Human D2 Dopamine Receptor: Primary Screen for Antagonists. Further: 0% is about no effect. Particulars: HEK293 TREx D2 cells, calcium flux, dopamine EC80; at 10 µM; stronger effect = higher value. A digest of the protocol:
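Cells plated overnight at 30 C with tetracycline; no-wash calcium dye, 30–90 min RT; 10 s baseline; compound pinned; 180 s read; EC80 dopamine added; another 180 s read.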
In the case of `CCOC(=O)c1c(NC(C)=O)sc2c(O)c(Br)cc(Br)c12`, the inhibition was active: 36.2%.
On to `O=C(CCN1CCN(c2ccccc2F)CC1)Nc1ccccc1Cl`, for which the inhibition was active: 87.8%.
Turning to `CC(=O)c1ccc(NS(=O)(=O)c2cc(-c3cc(C)no3)ccc2C)cc1`, the inhibition is -14%.
Then `CCCNC(=O)CCNS(=O)(=O)c1ccc2c(c1)c(=O)n(C)c(=O)n2C`, with 4.95%; and `CC(C)c1ccc(-c2nnc3n(CCc4ccccc4)c(=O)c4ccccc4n23)cc1`, with 21.6%.
With `Cc1ccc(CNC(=O)CCc2c(C)nc3nc(CNC(=O)OC(C)(C)C)nn3c2C)cc1`, the inhibition is 8.41%.
For the compound `CCCOc1ccc(C(=O)Nc2cccc(NC(=O)c3cccc(Cl)c3)c2)cc1`, the inhibition amounted to 3.5%.
Then `CCS(=O)(=O)c1ncc(N(Cc2ccco2)Cc2sccc2C)c(C(=O)Nc2ccc(C)cc2C)n1`, with 3.33%; and `CCC12CN3CC(C)(CN(C1)C3c1c[nH]c3ccccc13)C2=O` (stereo unspecified), with 4.22%; and `CC1=C(C(=O)Nc2ccc(C)cc2C)C(c2ccc(O)cc2)n2nnnc2N1` (stereo unspecified), with 6.61%.
Regarding `COc1ccc(/C=C\c2onc(C)c2S(=O)(=O)N2CCC(C(=O)Nc3ccc(C)cc3C)CC2)cc1`, the inhibition worked out at 14.7%.
With `CCOC(=O)c1c(C)[nH]c(C)c1C(=O)CSc1nc(N)cc(N)n1` the figure was active: 49.1%; with `O=C(Nc1ccc(F)cc1Cl)n1ncc2cc(Cl)ccc21`, 2.15%.
For `CCC(=O)N1CCc2cc(S(=O)(=O)NC(CC(C)C)C(=O)Nc3cc(C)ccc3OC)ccc21` (stereo unspecified), the inhibition worked out at 15.8%.
`CCOc1ccc(C(=O)NCc2ccc3c(c2)CCN3C(=O)c2ccccc2)cc1`: the inhibition was 19.9%.
With `COc1cccc(C(=O)Nc2cccc(OCc3cc(=O)n4cc(C)ccc4n3)c2)c1` the figure was -2.53%.
Consider `CCc1ccc(CNC(=O)c2ccc3c(c2)nc2n3CCC(C)C2)cc1` (stereo unspecified), for which the inhibition was found to be 9.01%.
Then `COc1ccc(-c2onc(C)c2C)cc1S(=O)(=O)NCc1ccco1`, with -5.62%.
With `COc1ccc(C)cc1NC(=O)CN(c1ccccc1)S(=O)(=O)N(C)C`, the inhibition worked out at 4.68%.
With `CCCCc1nn2c(=O)cc(COC(=O)COc3ccc(C)cc3)nc2s1`, the inhibition was -4.96%.
Consider `CCOC(=O)CN1C(=O)c2ccccc2Sc2ncccc21`, for which the inhibition worked out at 5.29%.
For `COc1ccc(NC(=O)CN2C(=O)COc3ccc(S(=O)(=O)Nc4ccccc4)cc32)cc1`, the inhibition amounted to 7.56%.
For the compound `CCCCc1nn2c(=O)cc(COC(=O)c3cccc(OC)c3)nc2s1`, the inhibition worked out at 21.7%.
Regarding `COc1ccccc1N(CC(=O)NCCSCc1ccccc1)S(C)(=O)=O`, the inhibition is -8.67%.
With `COc1ccc(-c2cc(C(F)(F)F)nc(SCC(=O)NCc3ccc(OC)c(OC)c3)n2)cc1`, the inhibition was -8.23%.
Then `CCc1nnc2c(Nc3cccc(C(C)=O)c3)nc3ccccc3n12`, with 8.8%.
In the case of `COc1cccc(-c2cn3c(n2)sc2cc(C(=O)NCc4ccccc4F)ccc23)c1`, the inhibition stood at 16.5%.
Regarding `CCOC(=O)c1cc(-c2ccccc2)n(CC(=O)NCc2ccc(C)cc2)c1C`, the inhibition was -7.38%.
With `Cc1ccc2nc(-c3cccc(NC(=O)c4cccc5c(Cl)cccc45)c3)oc2c1` the figure was 12.8%; with `CCOC(=O)c1c(C)oc2nc(C)nc(NCC3CCN(Cc4ccccc4C)CC3)c12`, 26.5%.
Turning to `O=C(NCC(c1cccnc1)N1CCOCC1)C(=O)Nc1ccc(Cl)cc1` (stereo unspecified), the inhibition was found to be 2.59%.
In the case of `Cc1cccc(-c2nc(CS(=O)CC(=O)NCc3ccc(Cl)cc3)c(C)o2)c1` (stereo unspecified), the inhibition was found to be 22.8%.
For `O=C1CN(C(=O)c2ccc(S(=O)(=O)N3CCCCC3)cc2)C(c2ccc(F)cc2)c2cc(Cl)ccc2N1` (stereo unspecified), the inhibition was -13.7%.
For `CCN(CC)CCn1c(=N)n(CCOc2ccccc2Cl)c2ccccc21`, the inhibition amounted to 13.5%.
As for `COc1ccc(C2=C(C)C(=O)N(Cc3ccc(C(=O)Nc4ccc(F)cc4C)cc3)S2(=O)=O)cc1`, the inhibition was -13.4%.
With `O=C(NCCc1ccccc1)c1ccc(CSc2nc3cccnc3n2Cc2ccccc2F)cc1`, the inhibition was -11.3%.
As to `Cc1c(Cl)cccc1NC(=O)CSc1nc(=O)[nH]c2c1CCCC2`, the inhibition is 16%.
As for `O=C(Nc1ccc2c(c1)C(=O)OC2)c1ccc(C(F)(F)F)cc1`, the inhibition was active: 33.7%.
Take `O=C(NCCC1=CCCCC1)C1CCN(C(=O)N2CCOc3ccccc32)CC1`: the inhibition stood at 0.392%.
Then `COc1ccc(OC)c(NC(=O)Cn2ncc3c2-c2ccccc2OC3)c1`, with -11.3%; and `Cc1ccc(-n2c(=O)c3cccnc3n2CC(=O)Nc2ccc(C)cc2Cl)cc1`, with 11.9%.
With `COc1cc(CSc2ncc(CO)n2Cc2ccc(C)cc2)cc(OC)c1` the figure was 24.3%; with `COc1ccc(CNC(=O)CCCN2C(=O)CCn3nc(-c4cn(C)c5ccccc45)cc32)cc1`, -10.5%.
For `Cc1nc(-c2ccc(F)cc2)sc1CCNC(=O)c1ccc(OC(C)C)cc1`, the inhibition was 4.26%.
Regarding `CCOc1ccc(-c2cn3c(n2)sc2cc(C(=O)N4CCCC(C)C4)ccc23)cc1` (stereo unspecified), the inhibition was 3.95%.
As for `CCN1CCN(C(=O)c2ccc3c(c2)N(Cc2ccccc2)C(=O)c2ccccc2S3(=O)=O)CC1`, the inhibition was -4.19% and active: 40.4%.
With `CC(C)Cc1nn2c(=O)cc(COC(=O)c3cccc(NS(C)(=O)=O)c3)nc2s1` the figure was -7.74%; with `Cc1nc(N2CCOCC2)c2c(C(=O)N(C)c3ccccc3)c(C)oc2n1`, -0.529%; with `Cc1cc(C)cc(OCC(=O)N(Cc2ccc(Cl)cc2)C2CCS(=O)(=O)C2)c1` (stereo unspecified), 5.19%.
For `COc1ccccc1CNC(=O)C1CCN(C2=NS(=O)(=O)C(c3ccc(C)c(C)c3)=C2C)CC1`, the inhibition is 23.2%.
Then `CC(=O)c1ccc(NC(=O)c2cc(S(=O)(=O)N3CCOCC3)ccc2C)cc1`, with 1.42%; and `Cc1cc(N2CCN(c3ccccc3)CC2)n2cnnc2n1`, with -0.363%.
Consider `COc1ccc(CCNC(=O)c2ccc(Cn3c(=O)c4ccccc4n(Cc4ccc(F)cc4Cl)c3=O)cc2)cc1OC`, for which the inhibition is 0.117%.
`O=C(NCc1ccc(Cl)cc1)c1ccc(CNS(=O)(=O)c2ccc(F)cc2)cc1`: the inhibition was found to be 0.82%.
With `CC(C)N1CCc2c(sc(NC(=O)c3ccc(S(=O)(=O)N(C)C4CCCCC4)cc3)c2C(N)=O)C1` the figure was 18.1%; with `O=C(O)/C(=C\c1cccc(O)c1)c1ccc(S(=O)(=O)N2CCCC2)s1`, active: 41.6%.
Regarding `COCCc1nn2c(=O)cc(COC(=O)c3ccco3)nc2s1`, the inhibition was 21.4%.
Then `Cc1ccccc1CNC(=O)C(=O)NCC(c1ccc2c(c1)OCO2)N1CCOCC1` (stereo unspecified), with 27.7%; and `CN(CCCNC(=O)Cn1ncc2c([nH]c3ccccc32)c1=O)Cc1ccccc1`, with -21.4%; and `Cc1ccccc1S(=O)(=O)Cc1ccc(C(=O)NCCc2ccccc2)o1`, with -14.3%.
As to `Cc1ccc2c(c1)-c1c(cnn1CC(=O)N1CCN(c3cc(C)ccc3C)CC1)CO2`, the inhibition is -14.7%.
